In one assay the target is T1, neonatal receptor FcRn (human, UniProt P55899 partial chain; P61769 partial chain).
T1 construct: also called recombinant human FcRn
The assay is described as follows: SPR, chip-bound Fc receptor. Background: SPR reads the build-up and loss of mass on a sensor chip optically.

A further assay deals with T2, FcγR2B (human, UniProt P31994 46-217, limits assumed).
T2 sequence (looked up): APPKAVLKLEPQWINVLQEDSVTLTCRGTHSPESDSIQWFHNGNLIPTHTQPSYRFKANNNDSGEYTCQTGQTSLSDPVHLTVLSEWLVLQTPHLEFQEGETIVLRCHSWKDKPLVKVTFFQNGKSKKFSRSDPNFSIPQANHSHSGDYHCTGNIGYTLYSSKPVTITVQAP
The assay is described as follows: SPR, chip-bound Fc receptor.

Sequence of neonatal receptor FcRn (P55899 24-297 limits assumed, form in doubt, chain 1 of 2): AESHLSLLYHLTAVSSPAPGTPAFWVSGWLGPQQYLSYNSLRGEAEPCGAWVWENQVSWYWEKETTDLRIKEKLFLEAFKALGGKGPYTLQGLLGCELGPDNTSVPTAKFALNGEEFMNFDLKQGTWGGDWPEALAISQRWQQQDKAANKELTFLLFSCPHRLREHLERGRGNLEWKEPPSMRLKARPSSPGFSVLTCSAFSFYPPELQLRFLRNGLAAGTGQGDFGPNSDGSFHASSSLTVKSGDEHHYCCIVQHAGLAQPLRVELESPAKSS
Sequence of neonatal receptor FcRn (P61769 21-119 limits assumed, form in doubt, chain 2 of 2, further chain): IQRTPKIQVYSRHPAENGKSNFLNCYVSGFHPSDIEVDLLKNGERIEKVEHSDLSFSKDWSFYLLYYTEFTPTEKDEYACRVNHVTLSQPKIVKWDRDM

B1: human CD172a-Fc-OX40L (Fc fusion)
chain: [… about 350 residues …]SKYGPPCPSCPAPEFLGGPSVFLFPPKPKDTLMISRTPEVTCVVVDVSQEDPEVQFNWYVDGVEVHNAKTKPREEQFNSTYRVVSVLTVLHQDWLSGKEYKCKVSSKGLPSSIEKTISNATGQPREPQVYTLPPSQEEMTKNQVSLTCLVKGFYPSDIAVEWESNGQPENNYKTTPPVLDSDGSFFLYSRLTVDKSSWQEGNVFSCSVMHEALHNHYTQKSLSLSLGKIEGRMDQVSHRYPRIQSIKVQFTEYKKEKGFILTSQKEDEIMKVQNNSVIINCDGFYLISLKGYFSQEVNISLHYQKDEEPLFQLKKVRSVNSLMVASLTYKDKVYLNVTTDNTSLDDFHVNGGELILIHQNPGEFCVL
notes: The entry includes the native leader; no cleavage site is stated; also called hCD172a-Fc-OX40L
In turn, B1 showed a Kd in the assay with neonatal receptor FcRn of 790 nM. Besides, the binding result in the assay with FcγR2B is given as “no binding”.

As a reminder, the Kd is the equilibrium constant for the complex coming apart. High values mean a looser complex, low ones a tighter complex.

(Values after patent publication US20180326005A1 (HEAT BIOLOGICS, published 2018).)
